Data published in PubChem BioAssay AID504845 (National Center for Advancing Translational Sciences (NCATS), 2011).
The whole screen tested about 390,000 compounds, of which about 150 (0.038%) were called active. The shares of active, inactive and inconclusive entries below differ from those in the screen. Calls follow the shape of the dose curve; as a rule, active = well fitted inhibition curve with a large enough effect; inconclusive = small, poorly fitted or top-dose-only effect; inactive = no such curve, though single readings can be large or run the other way. Potencies of inconclusive entries are doubtful fits and often do not repeat. Non-standard residues stand in square brackets, D forms with d. Residues, ends and D or L forms follow the SMILES beside them.
% is scaled to controls: 0 for no effect and ±100 for the full control effect; potency is read from the fitted curve at half-maximal effect; tags tell the direction and shape of the fitted curve.
Also: nearly all actives have a fitted effect of over 75% in size.

The compounds below were run against Regulator of G-protein signaling 4 (Homo sapiens) (UniProt P49798) (assay: Inhibitors of Regulator of G Protein Signaling (RGS) 4: qHTS). Settings: Transcreener GDP fluorescence polarization, RGS4-accelerated GTP hydrolysis; series mostly up to 114 µM; activity change, negative = inhibition: at the top concentration.
UniProt P49798, sequence (P49798 whole entry, looked up): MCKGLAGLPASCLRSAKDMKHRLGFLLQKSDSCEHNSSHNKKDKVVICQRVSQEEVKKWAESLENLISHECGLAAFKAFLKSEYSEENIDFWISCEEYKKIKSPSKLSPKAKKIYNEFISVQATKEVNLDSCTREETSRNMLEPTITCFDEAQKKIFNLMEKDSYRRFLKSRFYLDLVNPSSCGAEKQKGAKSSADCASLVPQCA
Procedure, shortened: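 MLSMR compounds (23 nl, pin-transferred) preincubated 10 min at room temperature with a 500nM (2x) first reagent, then RGS4 at 900nM (2x) plus Transcreener GDP mix added; fluorescence polarization (620/688 nm) read before and after 90 min at 30 °C.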
In the case of `Cn1cc(CNC(=O)c2ccc3nc(Cc4ccccc4F)oc3c2)cn1`, the “activity change, negative = inhibition” value is reported as inactive: 3.92%. With `Cn1c(=O)c2c(nc(OCCc3ccccc3)n2C)n(C)c1=O` the Potency was inconclusive: 89.1 µM [inhibitor, single point]. With `Cc1cc2c(SCC(=O)Nc3cccc(O)c3)ncnc2s1` the Potency was inconclusive: 28.2 µM [inhibitor, full curve, poor fit]. For `Clc1ccc(-c2csc(N/N=C/c3ccc4c(c3)OCO4)n2)cc1`, the Potency was inconclusive: 100 µM [inhibitor, partial curve, poor fit]. `Cc1ccc(C)n1-c1sccc1C(=O)O` was tested, and the Potency was inconclusive: 79.4 µM [inhibitor, partial curve, poor fit]. In the case of `O=C(NCc1ccc2c(c1)OCO2)c1nc(S(=O)(=O)Cc2ccccc2)ncc1Cl`, the Potency is reported as inconclusive: 35.5 µM [inhibitor, full curve, poor fit]. For `CC(C)C[C@H]1CNC(=S)N1CC1CCN(CCC23CC4CC(CC(C4)C2)C3)CC1`, the “activity change, negative = inhibition” value was inactive: -0.0873%. For `CCNc1nc(NC(C)C)nc(N(C#N)CCOc2ccccc2)n1`, the Potency was inconclusive: 89.1 µM [inhibitor, single point]. With `O=C(O)c1ccc(-c2ncc[nH]2)cc1` the Potency was inconclusive: 39.8 µM [inhibitor, partial curve, poor fit]. In the case of `COc1ccc(CCNC(=O)Cn2ncc3c(C)n(Cc4ccccc4F)c(C)c3c2=O)cc1OC`, the Potency is reported as inconclusive: 44.7 µM [inhibitor, partial curve, poor fit]. `CC(=O)Nc1ccn(C2OC(C(COC(C)=O)NC(=O)C(Cc3ccccc3)NC(=O)OC(C)(C)C)C(OC(C)=O)C2OC(C)=O)c(=O)n1` (stereo unspecified) was tested, and the “activity change, negative = inhibition” value was inactive: -11.3%. `CC(C)(C)C(=O)Nc1ccnn1C1CCN(C(=O)c2cccc(Cl)c2)CC1` was tested, and the Potency was inconclusive: 89.1 µM [inhibitor, single point]. In the case of `Cc1cccc(CN2C(=O)N/C(=C/c3cc(C)n(-c4ccccn4)c3C)C2=O)c1`, the “activity change, negative = inhibition” value is reported as inactive: 10.8%. For `Cc1cc(S(=O)(=O)N2CCN(CC(=O)N(C)Cc3ccccc3)CC2)ccc1Br`, the “activity change, negative = inhibition” value was inactive: -11.5%. With `Clc1ccc(CSc2ccc(-c3ccco3)nn2)cc1` the “activity change, negative = inhibition” value was inactive: -35.5%. With `CC1Nc2nc(N(C)C)[nH]c(=O)c2NC1C` (stereo unspecified) the Potency was inconclusive: 50.1 µM [inhibitor, partial curve, poor fit]. For `CCOC(=O)CCC(NC(=O)c1cncc(O)c1)C(=O)OCC` (stereo unspecified), the “activity change, negative = inhibition” value was inactive: -7.63%. With `Cc1c(Cc2ccccc2)sc(/N=C/c2c(O)ccc3ccccc23)c1C(N)=O` the Potency was inconclusive: 39.8 µM [inhibitor, partial curve, poor fit]. For `CC(C)(C)c1ccc(OCC(=O)NNC(=S)NC(=O)c2ccco2)c(Br)c1`, the Potency was inconclusive: 79.4 µM [inhibitor, partial curve, poor fit]. For `COc1cc2cc(Oc3ccc4ccc(=O)oc4c3)c(=O)oc2cc1O[C@@H]1O[C@H](CO)[C@@H](O)[C@H](O)[C@H]1O`, the Potency was inconclusive: 44.7 µM [inhibitor, partial curve, poor fit]. With `O=C(Nc1ccc(F)cc1)c1cn(-c2ccccc2)nc1-c1ccncc1` the Potency was inconclusive: 89.1 µM [inhibitor, single point]. `COc1ccc(C(=O)Nc2nc(-c3nnn(-c4ccc(F)cc4F)c3C)ns2)cc1` was tested, and the “activity change, negative = inhibition” value was inactive: -30.8%. With `C=CS(=O)(=O)N(Cc1ccccc1Br)[C@H](CO)Cc1ccccc1` the “activity change, negative = inhibition” value was inactive: -2.1%. `Cc1ccc(-n2c(-c3ccccc3)c[nH]c2=S)cc1` was tested, and the Potency was inconclusive: 17.8 µM [inhibitor, full curve, poor fit]. With `CCCOC(=O)CC1C(=O)NCCN1Cc1cc(OC)cc(OC)c1` (stereo unspecified) the “activity change, negative = inhibition” value was inactive: 2.52%. `Cc1ccc(-c2csc3nc4cc(C(N)=O)ccc4c(=O)n23)cc1` was tested, and the Potency was inconclusive: 35.5 µM [inhibitor, full curve, poor fit]. `NNc1cc([N+](=O)[O-])cc2c1C(=O)N(Cc1ccccc1)S2=O` (stereo unspecified) was tested, and the Potency was inconclusive: 100 µM [inhibitor, single point]. `Cc1occc1-c1nnc(SCC(=O)NC2CCCC2)n1-c1ccccc1` was tested, and the “activity change, negative = inhibition” value was inactive: -26.9%. With `COc1ccc(Oc2c(Cl)cnn(-c3ccc(C)cc3)c2=O)cc1` the Potency was inconclusive: 50.1 µM [inhibitor, partial curve, poor fit]. In the case of `COc1cccc(-c2nn(C)c3sc(C(=O)NCc4ccc(C)o4)cc23)c1`, the Potency is reported as inconclusive: 50.1 µM [inhibitor, partial curve, poor fit]. With `COc1ccc(-c2nc(CC(=O)O)cs2)cc1` the activity change, negative = inhibition was inactive: -26.4% [at 11.4 µM]. With `COc1cc(/C=C/C(=O)OCC(=O)Nc2ccc(C)c(S(=O)(=O)N3CCCCC3)c2)ccc1O` the Potency was inconclusive: 35.5 µM [inhibitor, full curve, poor fit]. With `C=CC(=O)N1C/C(=C/c2ccc(Cl)cc2)C(=O)/C(=C\c2ccc(Cl)cc2)C1` the Potency was inconclusive: 50.1 µM [inhibitor, partial curve, poor fit]. In the case of `COc1ccc(/C=C/C(=O)OCC(=O)Nc2ccc(N3CCOCC3)cc2)cc1OC`, the Potency is reported as inconclusive: 50.1 µM [inhibitor, partial curve, poor fit]. In the case of `CCN1CCC(O)(C#Cc2ccccc2)CC1`, the “activity change, negative = inhibition” value is reported as inactive: -1.05% [at 56.9 µM]. `CC(C)Nc1ccc(Nc2ccnc3cc4ccccc4cc23)cc1` was tested, and the Potency was inconclusive: 79.4 µM [inhibitor, partial curve, poor fit]. For `Oc1ccc2ccccc2c1CNc1ccc(Br)cc1`, the Potency was inconclusive: 79.4 µM [inhibitor, partial curve, poor fit]. For `CC1CN(S(=O)(=O)c2ccc(C(=O)N3CCc4ccccc43)cc2)CC(C)O1` (stereo unspecified), the Potency was inconclusive: 89.1 µM [inhibitor, single point]. With `COc1cc2nc(N3CCN(c4cc(C)ccc4C)CC3)nc(N)c2cc1OC` the “activity change, negative = inhibition” value was inactive: -4.35%. `Cc1cc(C)cc(N(C(=O)CNC(=O)c2cccs2)C(C(=O)NC2CCCC2)c2cccnc2)c1` (stereo unspecified) was tested, and the “activity change, negative = inhibition” value was inactive: -11%. For `N#C/C(=C\c1ccc(OCc2ccc(F)cc2)cc1)C(=O)Nc1cccc(C(=O)O)c1`, the Potency was inconclusive: 35.5 µM [inhibitor, full curve, poor fit]. `COc1cccc(-c2cn3c(n2)sc2cc(C(=O)NCc4ccccc4F)ccc23)c1` was tested, and the “activity change, negative = inhibition” value was inactive: -7.88%. In the case of `O=C(Oc1ccccc1Cl)c1ccc2c(=O)n3c(nc2c1)CCC3`, the Potency is reported as inconclusive: 100 µM [inhibitor, partial curve, poor fit]. `CSCC[C@H](C=O)NC(=O)[C@H](CC(C)C)NC(=O)[C@H](CC(C)C)NC(C)=O` (Ac-Leu-Leu-[dM]-aldehyde) was tested, and the Potency was inconclusive: 5.32 µM [inhibitor, partial curve, poor fit]. In the case of `c1ccc(CSc2nnc(Cc3ccccc3)o2)cc1`, the Potency is reported as inconclusive: 50.1 µM [inhibitor, partial curve, poor fit]. In the case of `O=C(CCC(=O)OCc1ccc(Br)cc1)Nc1ccccc1`, the Potency is reported as inconclusive: 79.4 µM [inhibitor, partial curve, poor fit]. `CN1C(=O)N(C)c2ccc(Br)c3cccc1c23` was tested, and the Potency was inconclusive: 79.4 µM [inhibitor, partial curve, poor fit]. `Cc1ccc(-c2cc(C(=O)N3CCN(S(=O)(=O)c4ccc(Br)s4)CC3)[nH]n2)cc1C` was tested, and the Potency was inconclusive: 79.4 µM [inhibitor, partial curve, poor fit]. For `C#C[C@]1(O)CC[C@H]2[C@@H]3CCC4=Cc5oncc5C[C@]4(C)[C@H]3CC[C@@]21C`, the “activity change, negative = inhibition” value was inactive: 5.83%. With `COc1cc(CNCCNC(=O)c2nonc2N)ccc1OCc1ccc(Cl)cc1` the Potency was inconclusive: 44.7 µM [inhibitor, partial curve, poor fit]. For `O=C(c1ccc(Cl)cc1)C(CN1CCCC1)c1ccccc1` (stereo unspecified), the Potency was inconclusive: 44.7 µM [inhibitor, partial curve, poor fit]. In the case of `COc1ccc(N=c2ssnc2Cl)cc1`, the activity change, negative = inhibition is reported as inactive: -59% [at 11.4 µM]. In the case of `O=C1CCC(C(=O)N2CCCCO2)CN1Cc1ccc(Cl)cc1` (stereo unspecified), the Potency is reported as inconclusive: 89.1 µM [inhibitor, single point]. `COc1ccc(/C=N/Nc2nc(Nc3ccccc3)nc(N3CCCCC3)n2)c(OC)c1` was tested, and the Potency was inconclusive: 100 µM [inhibitor, single point]. For `O=C(Nc1ccccc1)c1ccn[nH]1`, the “activity change, negative = inhibition” value was inactive: 15.6%. With `O=C(N/N=C/c1ccc(Br)s1)c1cccnc1` the “activity change, negative = inhibition” value was inactive: 15.9%. In the case of `O=S(=O)(c1cc(O)ccc1O)c1cccc2c(S(=O)(=O)c3cc(O)ccc3O)cccc12`, the Potency is reported as inconclusive: 100 µM [inhibitor, partial curve, poor fit]. `NS(=O)(=O)c1ccc(CCNC(=O)c2ccc[nH]c2=S)cc1` was tested, and the Potency was inconclusive: 25.1 µM [inhibitor, full curve, poor fit]. For `Cc1cc(C(F)(F)F)nn1CC(=O)N1CCCC1`, the Potency was inconclusive: 89.1 µM [inhibitor, single point]. For `CCN1C(=O)[C@H]2[C@H]3CN=C(SCC(=O)c4ccccc4)N3[C@@](C)(C(=O)OC)[C@H]2C1=O`, the Potency was inconclusive: 28.2 µM [inhibitor, full curve, poor fit]. In the case of `COc1cc(OC)c(OC)cc1CN(C)C(c1ccccc1)c1nnnn1-c1ccccc1C` (stereo unspecified), the “activity change, negative = inhibition” value is reported as inactive: -12.7%. For `Oc1c(C(c2ccccn2)N2CCCCC2)cc(Cl)c2cccnc12` (stereo unspecified), the “activity change, negative = inhibition” value was inactive: -18.7% [at 56.9 µM]. For `CC(C)(C)NC(=O)COC(=O)CNC(=O)C1CCCCC1`, the “activity change, negative = inhibition” value was inactive: 22.6%. For `O=C(O)CN1C(=O)c2ccc(Oc3ccc([N+](=O)[O-])cc3)cc2C1=O`, the Potency was inconclusive: 100 µM [inhibitor, single point]. For `O=C(Nc1ccc([N+](=O)[O-])cc1Cl)c1cc(Cl)ccc1O`, the Potency was inconclusive: 16.8 µM [inhibitor, single point]. With `CCCCC1=CC2=C(c3ccco3)C(=O)C(C)(OC(=O)c3ccc(OC)cc3)C(=O)C2=CN1CCCOC(C)C` (stereo unspecified) the Potency was inconclusive: 20 µM [inhibitor, full curve, poor fit].
